Laboratory results published in the supplement of paper PMC11417369.
This is one part of the list.

The sequences below were run on PfHDP1 homeodomain (GST-tagged) (assay: gcPBM binding intensity (ln(normalized median fluorescence intensity)); higher = stronger DNA binding).
Procedure, shortened: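 In this array assay, P. falciparum DNA-binding domains with a GST tag, expressed in E. coli, were applied for 1 h to primer-extended double-stranded 36-bp intergenic genomic probes and negative controls on an Agilent 4 × 180k array. Bound protein was visualised with Alexa488 anti-GST antibody at 488 nm. Binding intensity is the highest Masliner-normalised natural-log median intensity across replicate spots of either probe orientation.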

Q: How did the “gcPBM binding intensity (ln)” value turn out when “ATTTATTTATATACAAGTACATAAAAAATTAACTTA [XGTACX_site6170]” was run?
A: Its value is 5.89.

Q: With “TATTTGATAAAAAAAAGTACTAGAATTTCGCTTTTG [XGTACX_site7754]” as the sequence, how does the “gcPBM binding intensity (ln)” value read?
A: Its value is 6.08.

Q: How did the “gcPBM binding intensity (ln)” value turn out when “TAAAAATTAAAATGTTGTACAATGATAAAATATTAT [XGTACX_site7874]” was run?
A: Its value is 6.74.

Q: For “TAAATTGAAATATATTGTACATTATCAACTAAGGGA [XGTACX_site1635]”, which “gcPBM binding intensity (ln)” value is on record?
A: The value was 6.31.

Q: Which “gcPBM binding intensity (ln)” value does the source give for “CTCAACATATACGTAACACACATATAAATATAAATA [CACACA_site7749]” here?
A: Its value is 6.63.

Q: “AAATTATAAAATAACTGTACCAATCCTTTTTTTTTA [XGTACX_site2229]” was tested. Which “gcPBM binding intensity (ln)” value did it give?
A: Its value is 5.84.

Q: Which “gcPBM binding intensity (ln)” value does the source give for “TTATTCTACATATATGCATGTGTATGATCTGTTTAT [TGCATGCA_site782]” here?
A: Its value is 6.6.

Q: With “CATATATACCTATATACACACATATAGATTTATATA [CACACA_site6451]” as the sequence, how does the “gcPBM binding intensity (ln)” value read?
A: Its value is 6.63.

Q: “TGATATTATCTCTTCACACACTCACATACAGACAAA [CACACA_site1246]” was tested. Which “gcPBM binding intensity (ln)” value did it give?
A: The value was 6.78.

Q: With “AAAATAAAAAAAATGTAAAAGGTTAAAGTGAAATAT [CACACA_negctrl_site350]” as the sequence, how does the “gcPBM binding intensity (ln)” value read?
A: Its value is 6.75.

Q: How did the “gcPBM binding intensity (ln)” value turn out when “ATATAAATGATATGTACACACATTTATATATATAAA [CACACA_site3475]” was run?
A: The value was 6.57.

Q: For “AATCTAATATAATGCACACATAAAAAAAAATCAAAC [CACACA_site3633]”, which “gcPBM binding intensity (ln)” value is on record?
A: The value was 10.7.

Q: Which “gcPBM binding intensity (ln)” value does the source give for “TATTATATGTAGTTGAGTACATATAAATACATATAT [XGTACX_site7933]” here?
A: The value was 6.43.

Q: “AAATAGTTAAAAAGGCGTACACATAAATAAATAAAT [XGTACX_site2096]” was tested. Which “gcPBM binding intensity (ln)” value did it give?
A: The value was 6.8.

Q: Which “gcPBM binding intensity (ln)” value does the source give for “GTATATATATATATATATATAATAGTAACTTTTACT [CACACA_negctrl_site608]” here?
A: The value was 7.01.

Q: For “TGTAGTCTGGAGAAAAGTACATAGTATCTGGTAACA [XGTACX_site4940]”, which “gcPBM binding intensity (ln)” value is on record?
A: The value was 6.51.

Q: Which “gcPBM binding intensity (ln)” value does the source give for “TTTTAATTTTAAAAATGTACTTTTATTATTTTTAAT [XGTACX_site8300]” here?
A: The value was 6.19.

Q: Which “gcPBM binding intensity (ln)” value does the source give for “ATGAATAAAAAAGGTGGTACATATATATATATATAT [XGTACX_site7893]” here?
A: Its value is 9.39.

Q: Which “gcPBM binding intensity (ln)” value does the source give for “ATACATATATAATTATGTACGTATATTTTATATAAC [XGTACX_site4292]” here?
A: The value was 6.14.

Q: “AAAATAATATAAATAATATAAGTGAGCATATATATA [TGCATGCA_negctrl_site527]” was tested. Which “gcPBM binding intensity (ln)” value did it give?
A: Its value is 8.69.

Q: For “TGTCTTGTAAATTATTGTACTATTTAAAGTATAAAA [XGTACX_site7863]”, which “gcPBM binding intensity (ln)” value is on record?
A: Its value is 6.08.

Q: “TACAGACATACATACACACATACATACAGACATACA [CACACA_site1941]” was tested. Which “gcPBM binding intensity (ln)” value did it give?
A: The value was 6.84.

Q: For “CACACGCACGAACACACACACACACGCACGCACATA [CACACA_site6305]”, which “gcPBM binding intensity (ln)” value is on record?
A: Its value is 8.28.

Q: For “TATATTTAATTATTTTGTACTCATATAAAGATGATG [XGTACX_site5488]”, which “gcPBM binding intensity (ln)” value is on record?
A: Its value is 6.58.

Q: For “AAAAAAAAAATATTTGAACACACGAGGATATATAAA [CACACA_site139]”, which “gcPBM binding intensity (ln)” value is on record?
A: Its value is 6.54.

Q: For “TACATATTTACTATCACACACACGATATAAATAAAT [CACACA_site6701]”, which “gcPBM binding intensity (ln)” value is on record?
A: The value was 6.63.

Q: How did the “gcPBM binding intensity (ln)” value turn out when “CATATAGATTTGTTCACACACACACTAAAAAAAAAA [CACACA_site7212]” was run?
A: The value was 6.7.

Q: How did the “gcPBM binding intensity (ln)” value turn out when “ATATTCAATTCATACACACACAATTTAAGAATGATA [CACACA_site3883]” was run?
A: Its value is 6.7.

Q: With “AATAAAATTTGCGATGCACACAGAATAGCTAATATG [CACACA_site8983]” as the sequence, how does the “gcPBM binding intensity (ln)” value read?
A: The value was 8.15.

Q: How did the “gcPBM binding intensity (ln)” value turn out when “TTATTTTACTTTTATGCAACTAAAAATATTGCTATA [XGTACX_negctrl_site277]” was run?
A: Its value is 8.21.

Q: Which “gcPBM binding intensity (ln)” value does the source give for “ACAAATGTGAGAAAGACACACATATAATAAAAAACA [CACACA_site1156]” here?
A: The value was 6.47.

Q: Which “gcPBM binding intensity (ln)” value does the source give for “TATATAAGAATTTTTACACACATGAAAATGTAGATA [CACACA_site3735]” here?
A: The value was 6.19.

Q: Which “gcPBM binding intensity (ln)” value does the source give for “TATTTAATGTGATACTTATATTATTTTATGATTAAA [GTGCAC_negctrl_site25]” here?
A: The value was 6.16.

Q: “TATACATACTCACCCACACACAAAAAAAAAAAAAAA [CACACA_site862]” was tested. Which “gcPBM binding intensity (ln)” value did it give?
A: Its value is 6.43.

Q: For “AAAAAGGTTATTGGTACACACATATGTATATATATA [CACACA_site552]”, which “gcPBM binding intensity (ln)” value is on record?
A: Its value is 7.56.

Q: Which “gcPBM binding intensity (ln)” value does the source give for “ATAATATATATATTAACACACATCCTTTTATGTATA [CACACA_site1203]” here?
A: The value was 6.67.

Q: With “TTATAATAATTTTATGCACACAGAAAAATACAAGGT [CACACA_site9169]” as the sequence, how does the “gcPBM binding intensity (ln)” value read?
A: The value was 10.2.

Q: With “GAACCGTGCAAATGTTGTACACTTTAAAAATATTCT [XGTACX_site4488]” as the sequence, how does the “gcPBM binding intensity (ln)” value read?
A: Its value is 9.86.

Q: “ATATGTGTGTAGTGTTCAATTATATTGATGTGAAGG [TGCATGCA_negctrl_site462]” was tested. Which “gcPBM binding intensity (ln)” value did it give?
A: The value was 6.91.

Q: “AAAACGAAAATTTGGAAACCAAAGGAAAAACATAAT [GTGCAC_negctrl_site709]” was tested. Which “gcPBM binding intensity (ln)” value did it give?
A: The value was 6.87.

Q: “TACATATAGAAACACACACACATATATATATATATA [CACACA_site1300]” was tested. Which “gcPBM binding intensity (ln)” value did it give?
A: Its value is 9.43.

Q: “TAGGAGCCTAGACACACACACAAAAAAAAAAAAAAA [CACACA_site6911]” was tested. Which “gcPBM binding intensity (ln)” value did it give?
A: The value was 6.17.

Q: Which “gcPBM binding intensity (ln)” value does the source give for “AAAAAAAAAAAATAATAAATAAATAAAAATAAATGA [CACACA_negctrl_site1623]” here?
A: Its value is 6.19.

Q: With “ATTTTATTAATTTGGTGTACTTAATTTATATTTTTC [XGTACX_site4947]” as the sequence, how does the “gcPBM binding intensity (ln)” value read?
A: The value was 6.4.

Q: “CCTCCATTAGATACTTGTACATAAAAGTTTTGATTG [XGTACX_site7428]” was tested. Which “gcPBM binding intensity (ln)” value did it give?
A: Its value is 6.37.

Q: For “AATCATAAAATCATATGTACACATTTTTCCTATGAT [XGTACX_site8799]”, which “gcPBM binding intensity (ln)” value is on record?
A: The value was 6.67.

Q: How did the “gcPBM binding intensity (ln)” value turn out when “AGACTTTGTACAAACACACACATGAACACAATATTA [CACACA_site1360]” was run?
A: Its value is 7.06.

Q: “ACAAAATAAAAACACACACACAAACACAAAAAAATA [CACACA_site3390]” was tested. Which “gcPBM binding intensity (ln)” value did it give?
A: Its value is 6.92.

Q: With “AGAAGGTAAAAACACACACACACATACAAAAAAAAA [CACACA_site3767]” as the sequence, how does the “gcPBM binding intensity (ln)” value read?
A: Its value is 6.72.

Q: With “TATATATACAGACACATACACACAAATAAAAAAACA [CACACA_site3413]” as the sequence, how does the “gcPBM binding intensity (ln)” value read?
A: Its value is 7.08.

Q: For “AGCTCTTGTCATTTTGCACACACACCGGTATAGGTT [CACACA_site5654]”, which “gcPBM binding intensity (ln)” value is on record?
A: The value was 10.4.

Q: For “GTGTATTTATGTTATACACACAAAAATATTTTGTAT [CACACA_site4305]”, which “gcPBM binding intensity (ln)” value is on record?
A: The value was 7.13.

Q: How did the “gcPBM binding intensity (ln)” value turn out when “AATGTAGGTTTATTTACACACAAATATAGATATATA [CACACA_site6825]” was run?
A: The value was 6.28.

Q: Which “gcPBM binding intensity (ln)” value does the source give for “ATATTTAAAAAAGAGTGTACTCATCTCTTTTAAAAA [XGTACX_site1160]” here?
A: The value was 6.07.

Q: For “CTATTTCGTATATATAGTACATATTATAACATACTA [XGTACX_site978]”, which “gcPBM binding intensity (ln)” value is on record?
A: The value was 6.73.

Q: Which “gcPBM binding intensity (ln)” value does the source give for “ATGCATCATTTATTTGCACACCTATTATATACTTTT [CACACA_site2097]” here?
A: The value was 10.1.
